# In the supplement of paper PMC8728848:
# This is one part of the list.
# Tests used:
# Assay in all cases: glycan array binding signal (z-score within array); higher = stronger binding
# Details in all cases: glycan notation: IUPAC condensed, linker removed
# [1] = target: Gal(b1-4)GlcNAc(b1-3)Gal(b1-4)GlcNAc(b1-2)[Gal(b1-4)GlcNAc(b1-3)Gal(b1-4)GlcNAc(b1-6)]Man(a1-6)[Gal(b1-4)GlcNAc(b1-3)Gal(b1-4)GlcNAc(b1-2)Man(a1-3)]Man(b1-4)GlcNAc(b1-4)GlcNAc
# In short: (§1)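 Arrays were curated from the Consortium for Functional Glycomics database, 3228 in total, and kept only where the protein sequence was available. Binding is expressed as a within-array Z-score. This score was averaged across arrays of the same protein sequence at different concentrations or buffers and across linkers, and negative values can be read as non-binding.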
# [2] = target: Gal(b1-4)GlcNAc(b1-3)Gal(b1-4)GlcNAc(b1-2)[Gal(b1-4)GlcNAc(b1-3)Gal(b1-4)GlcNAc(b1-6)]Man(a1-6)[Gal(b1-4)GlcNAc(b1-3)Gal(b1-4)GlcNAc(b1-2)Man(a1-3)]Man(b1-4)GlcNAc(b1-4)[Fuc(a1-6)]GlcNAc
# In short: as §1
# [3] = target: Gal(b1-4)GlcNAc(b1-3)Gal(b1-4)GlcNAc(b1-3)Gal(b1-4)GlcNAc
# In short: as §1
# [4] = target: Gal(b1-4)GlcNAc(b1-3)Gal(b1-4)GlcNAc(b1-3)Gal(b1-4)GlcNAc(b1-2)Man(a1-3)[Gal(b1-4)GlcNAc(b1-3)Gal(b1-4)GlcNAc(b1-3)Gal(b1-4)GlcNAc(b1-2)Man(a1-6)]Man(b1-4)GlcNAc(b1-4)GlcNAc
# In short: as §1
# [5] = target: Gal(b1-4)GlcNAc(b1-3)Gal(b1-4)GlcNAc(b1-3)Gal(b1-4)GlcNAc(b1-2)Man(a1-3)[Gal(b1-4)GlcNAc(b1-3)Gal(b1-4)GlcNAc(b1-3)Gal(b1-4)GlcNAc(b1-2)Man(a1-6)]Man(b1-4)GlcNAc(b1-4)[Fuc(a1-6)]GlcNAc
# In short: as §1
# [6] = target: Gal(b1-4)GlcNAc(b1-3)Gal(b1-4)GlcNAc(b1-3)Gal(b1-4)GlcNAc(b1-2)[Gal(b1-4)GlcNAc(b1-3)Gal(b1-4)GlcNAc(b1-3)Gal(b1-4)GlcNAc(b1-6)]Man(a1-6)[Gal(b1-4)GlcNAc(b1-3)Gal(b1-4)GlcNAc(b1-3)Gal(b1-4)GlcNAc(b1-2)Man(a1-3)]Man(b1-4)GlcNAc(b1-4)[Fuc(a1-6)]GlcNAc
# In short: as §1
# [7] = target: Gal(b1-4)GlcNAc(b1-3)Gal(b1-4)GlcNAc(b1-3)Gal(b1-4)GlcNAc(b1-3)Gal(b1-4)GlcNAc(b1-2)Man(a1-3)[Gal(b1-4)GlcNAc(b1-3)Gal(b1-4)GlcNAc(b1-3)Gal(b1-4)GlcNAc(b1-3)Gal(b1-4)GlcNAc(b1-2)Man(a1-6)]Man(b1-4)GlcNAc(b1-4)GlcNAc
# In short: as §1
# [8] = target: Gal(b1-4)GlcNAc(b1-3)Gal(b1-4)GlcNAc(b1-3)Gal(b1-4)GlcNAc(b1-3)Gal(b1-4)GlcNAc(b1-2)Man(a1-3)[Gal(b1-4)GlcNAc(b1-3)Gal(b1-4)GlcNAc(b1-3)Gal(b1-4)GlcNAc(b1-3)Gal(b1-4)GlcNAc(b1-2)Man(a1-6)]Man(b1-4)GlcNAc(b1-4)[Fuc(a1-6)]GlcNAc
# In short: as §1
# [9] = target: Gal(b1-4)GlcNAc(b1-3)Gal(b1-4)GlcNAc(b1-3)Gal(b1-4)GlcNAc(b1-3)Gal(b1-4)GlcNAc(b1-2)[Gal(b1-4)GlcNAc(b1-3)Gal(b1-4)GlcNAc(b1-3)Gal(b1-4)GlcNAc(b1-3)Gal(b1-4)GlcNAc(b1-6)]Man(a1-6)[Gal(b1-4)GlcNAc(b1-3)Gal(b1-4)GlcNAc(b1-3)Gal(b1-4)GlcNAc(b1-3)Gal(b1-4)GlcNAc(b1-2)Man(a1-3)]Man(b1-4)GlcNAc(b1-4)[Fuc(a1-6)]GlcNAc
# In short: as §1
# [10] = target: Gal(b1-4)GlcNAc(b1-3)Gal(b1-4)GlcNAc(b1-3)Gal(b1-4)GlcNAc(b1-3)Gal(b1-4)GlcNAc(b1-3)Gal(b1-4)GlcNAc(b1-2)Man(a1-3)[Gal(b1-4)GlcNAc(b1-3)Gal(b1-4)GlcNAc(b1-3)Gal(b1-4)GlcNAc(b1-3)Gal(b1-4)GlcNAc(b1-3)Gal(b1-4)GlcNAc(b1-2)Man(a1-6)]Man(b1-4)GlcNAc(b1-4)GlcNAc
# In short: as §1
# [11] = target: Gal(b1-4)GlcNAc(b1-3)Gal(b1-4)GlcNAc(b1-3)Gal(b1-4)GlcNAc(b1-3)Gal(b1-4)GlcNAc(b1-3)Gal(b1-4)GlcNAc(b1-2)Man(a1-3)[Gal(b1-4)GlcNAc(b1-3)Gal(b1-4)GlcNAc(b1-3)Gal(b1-4)GlcNAc(b1-3)Gal(b1-4)GlcNAc(b1-3)Gal(b1-4)GlcNAc(b1-2)Man(a1-6)]Man(b1-4)GlcNAc(b1-4)[Fuc(a1-6)]GlcNAc
# In short: as §1
# [12] = target: Gal(b1-4)GlcNAc(b1-3)Gal(b1-4)GlcNAc(b1-3)Gal(b1-4)GlcNAc(b1-3)Gal(b1-4)GlcNAc(b1-3)Gal(b1-4)GlcNAc(b1-2)[Gal(b1-4)GlcNAc(b1-3)Gal(b1-4)GlcNAc(b1-3)Gal(b1-4)GlcNAc(b1-3)Gal(b1-4)GlcNAc(b1-3)Gal(b1-4)GlcNAc(b1-6)]Man(a1-6)[Gal(b1-4)GlcNAc(b1-3)Gal(b1-4)GlcNAc(b1-3)Gal(b1-4)GlcNAc(b1-3)Gal(b1-4)GlcNAc(b1-3)Gal(b1-4)GlcNAc(b1-2)Man(a1-3)]Man(b1-4)GlcNAc(b1-4)[Fuc(a1-6)]GlcNAc
# In short: as §1
# [13] = target: Gal(b1-4)GlcNAc(b1-3)Gal(b1-4)GlcNAc(b1-3)Gal(b1-4)GlcNAc(b1-3)Gal(b1-4)GlcNAc(b1-3)Gal(b1-4)GlcNAc(b1-3)Gal(b1-4)GlcNAc(b1-2)Man(a1-3)[Gal(b1-4)GlcNAc(b1-3)Gal(b1-4)GlcNAc(b1-3)Gal(b1-4)GlcNAc(b1-3)Gal(b1-4)GlcNAc(b1-3)Gal(b1-4)GlcNAc(b1-3)Gal(b1-4)GlcNAc(b1-2)Man(a1-6)]Man(b1-4)GlcNAc(b1-4)GlcNAc
# In short: as §1
# [14] = target: Gal(b1-4)GlcNAc(b1-3)Gal(b1-4)GlcNAc(b1-3)GalNAc
# In short: as §1
# [15] = target: Gal(b1-4)GlcNAc(b1-3)Gal(b1-4)GlcNAc(b1-3)[Gal(b1-4)GlcNAc(b1-3)Gal(b1-4)GlcNAc(b1-6)]GalNAc
# In short: as §1
# [16] = target: Gal(b1-4)GlcNAc(b1-3)Gal(b1-4)GlcNAc(b1-6)[Gal(b1-3)]GalNAc
# In short: as §1
# [17] = target: Gal(b1-4)GlcNAc(b1-3)Gal(b1-4)[Fuc(a1-3)]GlcNAc(b1-3)Gal(b1-4)[Fuc(a1-3)]GlcNAc
# In short: as §1
# [18] = target: Gal(b1-4)GlcNAc(b1-3)GalNAc
# In short: as §1
# [19] = target: Gal(b1-4)GlcNAc(b1-3)[Fuc(a1-3)GlcNAc(b1-6)]Gal(b1-4)Glc
# In short: as §1
# [20] = target: Gal(b1-4)GlcNAc(b1-3)[Gal(b1-4)GlcNAc(b1-6)]Gal(b1-4)GlcNAc
# In short: as §1
# [21] = target: Gal(b1-4)GlcNAc(b1-3)[GlcNAc(b1-6)]Gal(b1-4)GlcNAc
# In short: as §1
# [22] = target: Gal(b1-4)GlcNAc(b1-6)Gal(b1-4)GlcNAc
# In short: as §1
# [23] = target: Gal(b1-4)GlcNAc(b1-6)GalNAc
# In short: as §1
# [24] = target: Gal(b1-4)GlcNAc(b1-6)[Gal(b1-3)]GalNAc
# In short: as §1
# [25] = target: Gal(b1-4)GlcNAc(b1-6)[Gal(b1-4)GlcNAc(b1-3)]GalNAc
# In short: as §1
# Gal(b1-4)GlcNAc6P = target: Gal(b1-4)GlcNAc6P
# In short: as §1
# Gal(b1-6)Gal = target: Gal(b1-6)Gal
# In short: as §1
# Gal3S(b1-3)GalNAc = target: Gal3S(b1-3)GalNAc
# In short: as §1
# Gal3S(b1-3)GlcNAc = target: Gal3S(b1-3)GlcNAc
# In short: as §1
# [26] = target: Gal3S(b1-3)[Fuc(a1-4)]GlcNAc
# In short: as §1
binder,measurement,setting,value
PX9896A-bth-573-26-573 (Bacteroides thetaiotaomicron) (protein) ETNNLKTKEDMYKYFGTSKSMLTHVYSYMPQGYQLFATSGGIFTEDRYSMRDCASDDGEFGAYADNIQNTNNGNWSPIKTYDDSWTLYRGIRAANSFIAEIAQVDFTRYEHDGQYTNWMKQLKYFPYEARVLRAHYFFELARRYGDIAMPLEVLTEEEANTIGKTPFSEVISFIVSECDDAANNLPDSYVNEPGAEIGRVTKGFAMAVKSKALLYAASKLHNPSMDTELWKKSAKAAIDIINTGLYSLDPQESANNLDSKEVVLMRINGDDSDFEMFNLPLRMTAGTRTSSLIPYSNYPSQNLVDAFETVNGYKVTLENTGWVCEDPAFDPQSPYENRDKRFYRAILANGMSFKDYTIETFKGGADDGIVSQGGSPTGYFLRKYIQEATSFEPGKEAVSKHHWVIYRYAETLLTYAESMVNAFNDVNYTDETYKYSALWAINEVRKNADMPLIPSMGKDEFMERLYNEWRVEFAFEDHRFWDVRRWKIADTTQRELYGVKIEKQADGTFNFYKNLYETRNWRDCMYLYPIPQSELYKNTNLNPQNTGW,glycan array binding signal (z-score),[1],5.18
same,glycan array binding signal (z-score),[2],0.225
same,glycan array binding signal (z-score),[3],0.232
same,glycan array binding signal (z-score),[4],0.49
same,glycan array binding signal (z-score),[5],0.647
same,glycan array binding signal (z-score),[6],-0.033
same,glycan array binding signal (z-score),[7],0.219
same,glycan array binding signal (z-score),[8],0.667
same,glycan array binding signal (z-score),[9],0.196
same,glycan array binding signal (z-score),[10],0.845
same,glycan array binding signal (z-score),[11],0.341
same,glycan array binding signal (z-score),[12],1.16
same,glycan array binding signal (z-score),[13],-0.316
same,glycan array binding signal (z-score),[14],-0.719
same,glycan array binding signal (z-score),[15],0.442
same,glycan array binding signal (z-score),[16],-0.642
same,glycan array binding signal (z-score),[17],-0.511
same,glycan array binding signal (z-score),[18],-0.069
same,glycan array binding signal (z-score),[19],-0.223
same,glycan array binding signal (z-score),[20],0.24
same,glycan array binding signal (z-score),[21],-0.083
same,glycan array binding signal (z-score),[22],-0.678
same,glycan array binding signal (z-score),[23],-0.209
same,glycan array binding signal (z-score),[24],0.712
same,glycan array binding signal (z-score),[25],0.191
same,glycan array binding signal (z-score),Gal(b1-4)GlcNAc6P,-0.297
same,glycan array binding signal (z-score),Gal(b1-6)Gal,-0.438
same,glycan array binding signal (z-score),Gal3S(b1-3)GalNAc,-0.772
same,glycan array binding signal (z-score),Gal3S(b1-3)GlcNAc,0.035
same,glycan array binding signal (z-score),[26],-0.446
